Measurements taken from PMC4336329 (PLoS ONE, 2015).
About 14,000 (4.5%) of roughly 310,000 compounds showed an effect of 50% or more. The effect is printed as a negative number. This is one part of the list.

biological target: human ether-à-go-go-related gene (hERG) potassium channel (human, UniProt Q12809); assay: primary screen, population patch clamp on CHO cells stably expressing hERG
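Also: peak tail current of the secondary pulse compared with the same well before compound.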

Sequence of human ether-à-go-go-related gene (hERG) potassium channel (Q12809 whole entry, looked up): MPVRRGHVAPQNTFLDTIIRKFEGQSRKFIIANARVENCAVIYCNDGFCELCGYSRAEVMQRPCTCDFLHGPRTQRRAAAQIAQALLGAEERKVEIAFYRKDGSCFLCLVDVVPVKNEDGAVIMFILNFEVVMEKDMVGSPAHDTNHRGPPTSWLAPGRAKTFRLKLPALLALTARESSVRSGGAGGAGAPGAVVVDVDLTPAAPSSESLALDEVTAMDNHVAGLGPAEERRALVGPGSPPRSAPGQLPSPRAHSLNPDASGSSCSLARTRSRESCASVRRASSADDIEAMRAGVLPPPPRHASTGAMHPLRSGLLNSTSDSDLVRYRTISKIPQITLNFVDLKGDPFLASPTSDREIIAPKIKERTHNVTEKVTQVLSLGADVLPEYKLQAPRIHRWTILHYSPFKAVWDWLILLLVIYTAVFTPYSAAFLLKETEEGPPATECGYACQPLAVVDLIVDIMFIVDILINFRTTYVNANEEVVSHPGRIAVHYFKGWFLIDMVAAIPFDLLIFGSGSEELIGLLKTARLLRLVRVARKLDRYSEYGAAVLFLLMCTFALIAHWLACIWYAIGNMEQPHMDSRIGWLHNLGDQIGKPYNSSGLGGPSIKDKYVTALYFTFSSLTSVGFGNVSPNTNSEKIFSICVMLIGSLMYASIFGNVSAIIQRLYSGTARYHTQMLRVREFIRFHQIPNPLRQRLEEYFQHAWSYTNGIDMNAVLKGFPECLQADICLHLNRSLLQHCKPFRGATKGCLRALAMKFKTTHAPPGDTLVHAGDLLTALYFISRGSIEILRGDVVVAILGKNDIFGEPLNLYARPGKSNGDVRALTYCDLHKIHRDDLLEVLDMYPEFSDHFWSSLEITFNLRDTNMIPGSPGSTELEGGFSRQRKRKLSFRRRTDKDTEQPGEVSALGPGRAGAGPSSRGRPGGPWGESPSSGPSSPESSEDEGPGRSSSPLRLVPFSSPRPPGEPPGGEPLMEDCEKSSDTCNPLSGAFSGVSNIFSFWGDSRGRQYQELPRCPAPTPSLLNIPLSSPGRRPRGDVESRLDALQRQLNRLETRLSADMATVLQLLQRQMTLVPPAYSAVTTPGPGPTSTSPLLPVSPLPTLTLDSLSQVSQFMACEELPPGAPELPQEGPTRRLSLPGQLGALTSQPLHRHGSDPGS

Structure (SMILES)	hERG current change (%, negative = inhibition) at 10uM [%]
O=C(Oc1cccc2cccnc12)c1ccc2c(c1)OCCO2	-6.95
CCN(CC)C(=O)C1CCCN(c2ccc([N+](=O)[O-])cc2[N+](=O)[O-])C1 (centres unmarked)	-38.3
COCCCNC(=O)c1ccc2c(c1)ncn2-c1ccc(C)cc1C	-3.42
Cc1ccc(-n2c(CC#N)n[nH]c2=S)c(C)c1	3.3
Cc1[nH]c2ccc(-c3nnc(SCC(=O)c4ccccc4F)o3)cc2c1C	-1.24
CN1CCC(N(C)CC(=O)Nc2cccc(Oc3ccccc3)c2)CC1.O=C(O)C(=O)O	-11.9
O=C(O)c1ccccc1C(=O)Nc1ccccc1	3.87
COc1cccc(NC(=O)c2cccc(C)c2[N+](=O)[O-])c1	0.407
S=C(c1nc2ccccc2[nH]1)N1CCOCC1	-1.17
O=C(NCc1ccccc1)c1cc(-c2cccs2)on1	5.78
O=C(CCS(=O)(=O)c1ccccc1)Nc1ccc(N2CCOCC2)cc1	8.58
CC(=O)c1ccc(S(=O)(=O)NCC2(N3CCOCC3)CCCCC2)cc1	-6.2
O=C(NCCN1CCN(c2ccccc2)CC1)Nc1ccccc1Br	-52.1
O=C(NC1CCN(S(=O)(=O)c2ccc(Cl)cc2)CC1)C1CCCCC1	6
Cc1cc(C)c2c(n1)SCC(=O)N2CC(=O)Nc1cccc(Cl)c1	-11.2
O=C(Nc1cccnc1)c1ccc2nc(-c3ccccc3)c(-c3ccccc3)nc2c1	8.54
Cc1ccc(CSCCNC(=O)CN(c2ccccc2)S(C)(=O)=O)cc1	1.75
O=C(CCC(=O)N(c1ccccc1)C(C(=O)NC1CCCC1)c1ccncc1)Nc1cccnc1 (centres unmarked)	-1.02
Cn1cccc1Cc1nnc(SCC(=O)NCCc2ccccc2)n1-c1ccc(F)cc1	-21.6
Cc1nc2ccc(NS(=O)(=O)c3ccc4c(c3)OCCO4)cc2s1	-0.994
O=C(CN1CCC(n2nnc3cc(C(F)(F)F)ccc32)CC1)NCc1cccs1	-74.5
CC(=O)c1cc(C)ccc1OC(=O)c1ccncc1	10.8
Cc1nc(C)n(CC(O)COc2ccc3cc(Br)ccc3c2)n1 (centres unmarked)	0.271

Structure (SMILES)	hERG current change (%, negative = inhibition) at 10uM [%]
C=CCn1c(O)c(/C=C2/C=CC=N2)c(=O)[nH]c1=O	7.43
COC(=O)CNC(=O)C1CC(=O)N(CCc2ccc(F)cc2)C1 (centres unmarked)	25.5
CCOC(=O)c1cnn(-c2ccccc2)c1-n1cccc1C(=O)C(=O)Nc1ccc(F)cc1	2.5
COC(=O)C1=C(c2ccccc2OCc2ccccc2)C[C@@H]2CC[C@H]1N2C(=O)NCc1ccc(F)cc1	-5.95
CCOC(=O)c1c(-c2ccc(C)cc2)csc1NC(=O)C1CCCO1 (centres unmarked)	2.72
CCc1ccc(CN(C)C(=O)CCc2nnc(COc3ccccc3)o2)cc1	-18.9
Cc1ccc(Nc2cc(=O)n(C3CCCCC3)c(=O)[nH]2)cc1C	12.4
O=C1N(O)C2(C=CCCC2)/C(=N\O)C12CCCCC2 (centres unmarked)	4.94
Nc1nc(-c2cccnc2)nc(N2CCCCC2)n1	-13.6
Cl.NC(=O)CSc1nnc([C@@H](N)Cc2c[nH]c3ccccc23)o1	8.1
CNc1nc(OCC#N)nc(N2CCCCC2)n1	6.01
Cn1c(N)c(C(=O)CSc2nnc(-c3ccccc3F)n2C2CC2)c(=O)n(C)c1=O	19.4
Cc1cccc(N(CC(=O)NCCSc2nc3ccccc3s2)S(=O)(=O)c2ccccc2)c1	17.3
Cc1ccc(-c2c(=O)n(O)c3ccccc3[n+]2[O-])cc1	17.4
CCc1cc(-c2n[nH]c(=S)n2-c2cccc(C)c2)cs1	10.9
CCOc1cc(CNC(C)(C)C)ccc1OCC(=O)Nc1cccc(C(F)(F)F)c1.Cl	-13.7
CC(=O)c1ccc(OCC(=O)Nc2ccccc2N2CCCC2)cc1	-2.74
Cn1c(/C(C#N)=C2/CCCCCN2)nc2ccccc21	-12.5
O=C(CCN1C(=O)c2cccc3cccc(c23)C1=O)N1CCN(c2ccccc2F)CC1	6.93
Cc1nn(C(C)C(=O)N2CCCCC2)c(=O)c2c1sc1ccccc12 (centres unmarked)	7
C=CCOC(=O)COc1ccc2c(C)c(C)c(=O)oc2c1C	-8.88
[N-]=[N+]=NCCN1CCC(O)CCC1=O (centres unmarked)	-5.01
CC(=O)c1cc(C#N)c(SCC(=O)C(C)(C)C)nc1C	-3.14

Structure (SMILES)	hERG current change (%, negative = inhibition) at 10uM [%]
O=C(CN(c1cccc(C(F)(F)F)c1)S(=O)(=O)c1ccccc1)N1CCOCC1	-30.5
O=C(Nc1ccc2ccccc2c1)c1cn(-c2ccccc2)nc1-c1cccs1	2.89
O=C(NCCc1ccccc1)C1CCCN(c2ncnc3c2nc2n3CCCCC2)C1 (centres unmarked)	-59.9
O=C1[C@@H]2[C@H](C(=O)N1Cc1ccco1)[C@H]1C=C[C@@H]2C1	-0.451
O=C(NCc1csc2ccccc12)Nc1cc(Cl)cc(Cl)c1	13.6
CCc1c(C)nc2c(-c3ccccc3OC)c(C)[nH]n2c1=O	11.2
NC(=O)COC(=O)c1ccccc1OCc1ccccc1Cl	-14.4
CN1C/C(=N\S(=O)(=O)c2ccccc2)N(C)C1=O	10.7
CC(C)CN(/C=N/c1sc2c(c1C#N)CCCCC2)CC(C)C	17.3
O=C(CCS(=O)(=O)c1ccc(Br)s1)NCc1ccccc1	15.3
O=C(NCCCN1CCOCC1)NC12CC3CC(CC(C3)C1)C2	1.72
CCOc1ccc(OCCC(=O)OCC(=O)NC2CCCCC2)cc1	11.4
COc1ccc([C@@H]2CC=C(C(=O)O)[C@H](c3ccccc3F)N2S(=O)(=O)c2ccc(C)cc2)cc1OC	20.7
O=C(NCCNC(=O)c1ccc(Br)o1)c1cccnc1	10.1
COC(=O)c1nn(-c2ccccc2)c(Sc2ccc(Br)cc2)c1/C=N/O	6.5
CC(C)N(Cc1nccn1C)C(=O)c1ccc(OC2CCN(C(=O)C3CC3)CC2)cc1	11.1
COc1ccccc1OCCn1c(=O)n(C)c2ccccc21	0.54
CN(CC(=O)Nc1c(Cl)cccc1Cl)C(=O)c1cc(S(=O)(=O)N(C)C)ccc1N1CCCC1	-0.107
CC1=CCC(Cc2nc3ccccc3o2)C1(C)C (centres unmarked)	3.37
O=C(NC1CC1)c1scc2c1OCCO2	10.8
CN(C)CC(O)COc1ccc(C(C)(C)c2ccc(OCC(O)CN(C)C)cc2)cc1.Cl (centres unmarked)	12.5
CC1CC(c2ccccc2)n2nc(N3C(=O)c4ccccc4C3=O)nc2N1 (centres unmarked)	12.4
CN(C)c1ccc(N=c2sc3ccccc3n2C)cc1	-0.278

Structure (SMILES)	hERG current change (%, negative = inhibition) at 10uM [%]
Cc1ccc(NC(=O)CSc2ccc(-c3cccnc3)nn2)cc1	-12.3
O=C(CSc1nnnn1-c1ccccc1F)Nc1nc2ccccc2s1	-10.9
CCOn1c(=O)c(-c2ccc(OC)c(OC)c2)[n+]([O-])c2ccccc21	4.12
CC(=O)c1ccc(Nc2c(C)n(C)n(-c3ccccc3)c2=O)cc1	23.3
O=C(Cn1nc(Cc2cccnc2)c2ccccc2c1=O)NCC1COc2ccccc2O1 (centres unmarked)	-57.4
O=[N+]([O-])c1cccc(-c2cc(-c3cc(Br)ccc3O)[nH]n2)c1	20.2
N#CC(c1ccccc1)c1ccc(C(=O)c2ccc(F)cc2)cc1 (centres unmarked)	-11.4
COc1cc(-c2cc(C(F)(F)F)n3ncc(C(=O)O)c3n2)cc(OC)c1OC	13.2
Cc1ccc(C)c(-c2cc(C(=O)NNC(=S)NCC(C)C)c3ccccc3n2)c1	12.9
Cc1cc(-c2nsc(=O)o2)c(S(C)(=O)=O)s1	10.7
COc1ccc2c(c1)[nH]c(=O)c1sc3ccccc3c12	10.9
CCOc1ccc(NC(=O)CSc2nncc(=O)[nH]2)cc1	16.6
CCC(C)(C)NC(=O)C(c1ccc(C)o1)N(C(=O)c1csnn1)c1cccc(F)c1 (centres unmarked)	-4.59
COc1cc(OC)c(C2SCCN2S(=O)(=O)c2ccc(F)cc2)cc1OC (centres unmarked)	15.9
COc1cc2cccc(OC)c(=O)c2c(OC)c1OC	10.9
Cc1ccccc1NC(=S)/C(=C(\[O-])c1cc(C)n(Cc2ccccc2Cl)c1C)[n+]1ccccc1	11.6
CCOC(=O)C1=C(C)C(c2ccccc2O)NC(=O)N1 (centres unmarked)	3.36
C=CCN(CC=C)C(=O)CN1C(=O)NC(Cc2c[nH]c3ccccc23)C1=O (centres unmarked)	17
Cc1ccc(-c2nc3ccsc3c(=O)[nH]2)cc1	20.8
c1csc(-c2nnc(NC3CCCCC3)c3ccccc23)c1	-75.4
